# Results: PubChem BioAssay AID1508642 (National Center for Advancing Translational Sciences (NCATS), 2021)
# The whole screen tested about 43,000 compounds, of which about 200 (0.47%) were called active. Another 12% or so got no clear call; they are omitted. Calls follow the shape of the dose curve; as a rule, active = well fitted cell-killing curve with a large enough effect; inconclusive = small, poorly fitted or top-dose-only effect, or effect the other way; inactive = flat fitted curve, though single readings scatter. The list shows a part of the results.
# Test: Cell viability qHTS assay in S16 Pmp22-F2sN cells; also: nearly all actives have a fitted effect of over 65% in size
# Conditions: S16 Pmp22-F2sN Schwann cells viability, CellTiter-Glo, 24 h; series mostly up to 57.5 µM; activity change, negative = cytotoxicity: at the top concentration
# Summary of the method: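 S16 Pmp22-F2sN Schwann cells (500-1,000/well) in phenol-red-free DMEM with 10% FBS received 23 nL compound by pin tool for 24 h at 37 °C. Viability was then read as CellTiter-Glo luminescence after 15 min at room temperature.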
# % is scaled to controls: 0 for no effect and ±100 for the full control effect.
row,Compound,"activity change, negative = cytotoxicity"
1,COc1cc(OC)c(NC(=O)CN2C(=O)CCn3nc(-c4cccn4C)cc32)cc1Cl,inactive: 6%
2,CC(C)OCCCn1c(SCc2ccccc2C#N)nc2c(sc3ccccc32)c1=O,inactive: 10.9%
3,Cc1c(Cl)cccc1NC(=O)CSc1ncnc2c1sc1ccccc12,inactive: 3.42%
4,COc1cc(NC(=O)CCn2c(-c3ccccc3)cc(C(C)=O)c2C)cc(OC)c1,inactive: -14.3%
5,Cc1cc(C)c(NC(=O)CSc2ccnc(=O)[nH]2)c(C)c1,inactive: -1.16%
6,O=C(COc1ccccc1)NCc1ccc2c(c1)CCN2C(=O)c1ccc(F)cc1,inactive: 0.0237%
7,Cc1ccc(-n2ncc3c(N4CCCCCC4)ncnc32)cc1,inactive: -7.96%
8,Cc1cc(OCC(=O)Nc2ccc(-c3nc4cc(Cl)ccc4o3)cc2)cc(C)c1Cl,inactive: 4.6%
9,NS(=O)(=O)c1ccc(CCNC(=O)C2COc3ccccc3C2)cc1 (configuration not stated),inactive: 2.65%
10,CCc1ccc(C2CC(=O)c3c([nH]c(C(=O)OCC4CCCCC4)c3C)C2)cc1 (configuration not stated),inactive: 1.02%
11,CCCC(=O)Nc1cc(C)c(O)c(-c2nc3ncccc3o2)c1,inactive: 24.8%
12,COc1ccc(Cl)cc1NC(=O)c1ccc2nc(Cc3ccccc3)oc2c1,inactive: 7.71%
13,CCCCNC(=O)C1CCCN(Cc2nc(-c3ccc(Cl)cc3)oc2C)C1 (configuration not stated),inactive: 7.86%
14,CCc1ccc(C(=O)c2cn(CC(=O)Nc3ccc(F)c(F)c3)c3cc(OC)c(OC)cc3c2=O)cc1,inactive: -23.9%
15,Cc1ccc(-n2nc(C(=O)N3CCN(c4cc(Cl)ccc4C)CC3)c(=O)n(C)c2=O)cc1,inactive: -4.39%
16,CCOc1cccc2cc(-c3nc(-c4ccccc4C)no3)c(=O)oc12,inactive: -1.85%
17,Cc1ccc(Oc2c(C(F)(F)F)oc3c(CN4CCCCC4)c(O)ccc3c2=O)cc1,inactive: 9.6%
18,O=C(Nc1ccc(Cl)cc1)C1CCCN(S(=O)(=O)c2ccc3[nH]c(=O)ccc3c2)C1 (configuration not stated),inactive: 10.2%
19,Cc1cc(F)ccc1NC(=O)CCS(=O)(=O)c1ccc2c(c1)NC(=O)CO2,inactive: 0.475%
20,CCOC(=O)c1cccc(NC(=O)c2oc3c(c2C)-c2[nH]ncc2CC3)c1,inactive: -0.0926%
21,CCC(C(=O)Nc1ccc(C(=O)OC)cc1)n1c(=O)c(-c2ccccc2NC(C)=O)nc2ccccc21 (configuration not stated),inactive: -2.57%
22,COc1cc(CN(C(=O)Nc2ccccc2)c2ccccn2)cc(OC)c1OC,inactive: -0.692%
23,CCc1ccccc1NS(=O)(=O)c1ccc2[nH]cc(C(=O)N3CCCCC3)c(=O)c2c1,inactive: 4.94%
24,Cc1nc2c(-c3ccccc3)c(C)nn2c(C)c1CCC(=O)NC(C)c1ccccc1 (configuration not stated),inactive: 12.8%
25,COc1cccc(CNC(=O)C2CCCN(S(=O)(=O)c3ccc4c(ccn4C)c3)C2)c1 (configuration not stated),inactive: -27%

row,Compound,"activity change, negative = cytotoxicity"
1,Cn1c(=O)n(-c2ccc(F)c(Cl)c2)c(=O)c2sc3ccccc3c21,inactive: 4%
2,CCOC(=O)c1c(Nc2ccc(C)cc2)nnc(-c2ccccc2)c1-c1ccccc1,inactive: -24.4%
3,CC1=C(C(=O)OC2CCCCCC2)C(c2c(F)cccc2Cl)CC(=O)N1 (configuration not stated),inactive: 19.7%
4,CCN(CCCNC(=O)c1c(C)oc2ncn(CC(C)C)c(=O)c12)Cc1ccccc1,inactive: -17.5%
5,Cc1ccc(Cl)cc1NC(=O)c1oc2c(c1C)-c1[nH]ncc1CC2,inactive: -2.38%
6,COc1ccc(N(Cc2cccs2)C(=O)COc2cccc(Cl)c2)cc1,inactive: -6.26%
7,CCOC(=O)c1cnc2c(Cl)cccc2c1NCCN1CCOCC1,inactive: 6.01%
8,COC(=O)CCSc1nc2sc3c(c2c(=O)n1Cc1ccccc1)CCC(C(C)(C)C)C3 (configuration not stated),inactive: -1.57%
9,COc1ccc(NCc2cc3cc4c(cc3n(CC(=O)Nc3ccc(F)cc3F)c2=O)OCO4)cc1,inactive: -25.3%
10,CCc1ccccc1NS(=O)(=O)c1ccc(OC)c2ncccc12,inactive: -25.5%
11,CCn1c2ccccc2c2nnc(N3CCN(c4cc(C)ccc4C)CC3)nc21,inactive: -5.76%
12,Fc1ccc(-c2nc(Nc3cccc(Cl)c3)nc3c2COc2ccccc2-3)cc1,inactive: -17.6%
13,Cc1ccc(-n2ncc3c(NCCCN4CCOCC4)ncnc32)cc1,inactive: 0.677%
14,COc1cccc(-n2c(=O)c3c(C)c(C(=O)N(C)C)sc3n(Cc3ccc(F)cc3Cl)c2=O)c1,inactive: -5.25%
15,COc1ccc(NC(=O)C2Cc3ccccc3N2C(=O)c2ccccc2)c(OC)c1 (configuration not stated),inactive: 1.97%
16,CCOc1ccccc1NC(=O)c1cc2c(Cl)nc3ccccc3c2s1,inactive: -3.31%
17,COc1ccc(N2CCN(S(=O)(=O)c3ccc4c(c3)CC(C)N4C(C)=O)CC2)cc1 (configuration not stated),inactive: -9.96%
18,O=C(Nc1ccc(Br)cc1F)c1cc(S(=O)(=O)NCc2ccc(F)cc2)ccc1F,inactive: -6.78%
19,COc1ccc(NC(=O)c2cc3c(s2)-c2c(C)cccc2OC3)c(OC)c1,inactive: -10.1%
20,COc1ccc(CCNC(=O)c2cc3c(-c4ccccc4F)nn(C)c3s2)c(OC)c1,inactive: -8.51%
21,CSc1ncc(C(=O)Nc2ccccc2C(=O)c2ccccc2)c(C(F)(F)F)n1,inactive: -6.39%
22,Fc1ccc(-n2cc(-c3ccccc3)c3c(NC4CCCCC4)ncnc32)cc1,inactive: -23.1%
23,CCOC(=O)c1cccc(NC(=O)c2cc3c(=O)n(Cc4ccccc4)ccc3nc2C)c1,inactive: 0.0387%
24,CCCCNc1nc(Oc2ccc(=O)[nH]n2)nc(N(C)C)n1,inactive: -13.6%
25,C=C(C)Cn1c(=O)c2c(nc3n2CCN3c2ccc(CC)cc2)n(C)c1=O,inactive: 0.0162%

row,Compound,"activity change, negative = cytotoxicity"
1,CCC(=O)N1CCc2cc(S(=O)(=O)NC(Cc3ccccc3)C(=O)Nc3ccc(C)cc3)ccc21 (configuration not stated),inactive: 1%
2,Cc1ccc(NC(=O)c2sc3nc(-c4cc5ccccc5oc4=O)[nH]c(=O)c3c2C)c(C)c1,inactive: -7.3%
3,COc1cc(C(=O)Nc2cc3c(cc2C)n(C)c(=O)c(=O)n3C)cc(OC)c1OC,inactive: -13.3%
4,CCOc1ccc(-n2c(SCc3ccc(C(=O)OC)o3)nc3c([nH]c4ccccc43)c2=O)cc1,inactive: 18.5%
5,COc1cc(C(=O)Nc2cc(C)ccc2OCc2cc(=O)n3c(C)csc3n2)cc(OC)c1OC,inactive: -3.82%
6,O=C(CC1Sc2ccc(C(F)(F)F)cc2NC1=O)Nc1ccc(Cl)c(C(F)(F)F)c1 (configuration not stated),inactive: -13.8%
7,Cc1ccc2occ(CC(=O)Nc3ccc(S(N)(=O)=O)cc3)c2c1,inactive: 4.26%
8,COc1ccc(-c2nc(SCC(=O)NCCCc3ccccc3)n[nH]2)cc1,inactive: -7.36%
9,Cc1cc(OCC(=O)Nc2sc3c(c2C(N)=O)CCCC3)ccc1C(C)C,inactive: -3.04%
10,COc1ccc(NC(=O)Cn2c(C)c3cnn(-c4ccccc4)c(=O)c3c2C)c(OC)c1,inactive: -10%
11,Cc1ccc(N(CC(=O)NC(C)c2ccccc2)S(=O)(=O)c2c(C)noc2C)cc1 (configuration not stated),inactive: -18.8%
12,Cc1cccc(-c2noc(C3CC(=O)N(c4ccc5c(c4)OCCO5)C3)n2)c1 (configuration not stated),inactive: 16.4%
13,COc1ccc(C(=O)CCC(=O)Nc2ccccc2C)cc1,inactive: 3.73%
14,COc1ccccc1NC(=O)CSCc1cc(=O)c2c(C)cc(C)cc2[nH]1,inactive: 11.7%
15,Cc1cccc(NC(=O)C2CCCN(S(=O)(=O)c3c(C)noc3/C=C/N(C)C)C2)c1C (configuration not stated),inactive: 9.17%
16,CCC(Sc1nncn2c1cc1sccc12)C(=O)Nc1cccc(OC)c1 (configuration not stated),inactive: -20.2%
17,CC(C)(C)C1CCc2nc(NC(=O)Cc3ccc(Cl)cc3)sc2C1 (configuration not stated),inactive: -15%
18,Cc1cc(C)c2c(=O)cc(CSCC(=O)Nc3nnc(C)s3)[nH]c2c1,inactive: 21.3%
19,CCCNC(=O)Nc1cc(C(=O)NCc2cccc(OCC)c2)ccc1N1CCCC1,inactive: -0.0036%
20,COc1ccc(N(C)C(=O)NCc2noc3ccc(C)cc23)c(OC)c1,inactive: 9.28%
21,CCOC(=O)CC(NC(=O)Cn1nnc(-c2ccccc2C)n1)c1ccc(OC)cc1 (configuration not stated),inactive: -4.87%
22,Cc1cc2nc3c(=O)n(C)c(=O)n(C)c3nc2cc1N=CN(C)C,inactive: -3.19%
23,CCC(=O)N1CCc2cc(Br)cc(S(=O)(=O)CCC(=O)Nc3ccccc3C)c21,inactive: -1.75%
24,CC(C)(C)c1ccc(C(=O)Nc2ccccc2C(=O)OCc2cc(=O)n3ccsc3n2)cc1,inactive: 1.94%
25,Cc1ccc(CN2CCN(C3CCN(C(=O)OC(C)(C)C)CC3)C(=O)C2=O)cc1,inactive: -3.86%

row,Compound,"activity change, negative = cytotoxicity"
1,Fc1ccc(CNc2ncnc3c2c(-c2ccccc2)cn3-c2ccccc2)cc1,inactive: 3.88%
2,Cn1c(=O)n(C)c2cc(S(=O)(=O)Nc3ccccc3C(=O)O)ccc21,inactive: 3.29%
3,Cc1ccc(C)c(NC(=O)CCNS(=O)(=O)c2ccc3c(c2)CCCC(=O)N3)c1,inactive: -4.69%
4,CN(C(=O)CSc1nnc2[nH]c(=O)cc(-c3ccccc3)n12)c1ccccc1,inactive: 1.62%
5,COCCNC(=O)c1ccc2c(c1)N(Cc1cccc(Cl)c1)C(=O)c1ccccc1S2=O (configuration not stated),inactive: -9.37%
6,CCOC(=O)c1cc(-c2ccccc2)n(CC(=O)NCc2ccccc2OC)c1C,inactive: 13.8%
7,O=C(Nc1ccc(F)c(F)c1)C1CCCN(S(=O)(=O)c2cccc3nonc23)C1 (configuration not stated),inactive: 4.06%
8,Cc1c2cnn(-c3ccccc3)c(=O)c2c(C)n1CCCC(=O)Nc1ccc(F)cc1F,inactive: -13.2%
9,CCOC(=O)c1cc(-c2ccccc2)n(CCCC(=O)Nc2ccc(CC)cc2)c1C,inactive: -26.1%
10,Cc1c(Cl)cccc1NC(=O)CCS(=O)(=O)c1ccc(Br)s1,inactive: 5.46%
11,CC(C)(C)C1CCc2onc(C(=O)Nc3sc4c(c3C(N)=O)CCCC4)c2C1 (configuration not stated),inactive: -4.21%
12,O=C(c1ccc2c(Cl)c3c(nc2c1)CCCC3)N1CCN(c2ccccc2)CC1,inactive: 2.15%
13,CCOc1ccccc1NS(=O)(=O)c1c(-c2ccc(C)cc2)csc1C(=O)OC,inactive: -5.36%
14,COc1ccc(-c2noc(C3CC(=O)N(c4cc(C)cc(C)c4)C3)n2)cc1 (configuration not stated),inactive: 2.01%
15,COc1ccc(/C=C/c2nc(C#N)c(N3CCN(c4ccccc4)CC3)o2)cc1OC,inactive: 12.1%
16,CCOC(=O)c1c(C)c(C(=O)NCCc2ccc(OC)cc2)c(C)n1C,inactive: -2.75%
17,CCc1nn(CC(=O)Nc2cccc(C)c2C)c(=O)c2cc3sccc3n12,inactive: 2.3%
18,CC1=C(C(=O)Nc2ccc(Cl)cc2)C(C(C)C)n2nc(SCc3cccc(C)c3)nc2N1 (configuration not stated),inactive: -0.654%
19,CCC(C)NC(=O)c1ccc2c(c1)N(Cc1ccccc1)C(=O)c1ccccc1S2(=O)=O (configuration not stated),inactive: -0.601%
20,CN1CCN(CCCNC(=O)c2cnn(-c3ccccc3)c2C2CCN(C(=O)OC(C)(C)C)CC2)CC1,inactive: 1.76%
21,CCC(Oc1ccccc1)C(=O)Nc1ccccc1OCc1cc(=O)n2ccccc2n1 (configuration not stated),inactive: 3.29%
22,CCc1ccccc1NC(=O)c1cc(S(=O)(=O)NCCc2ccc(OC)c(OC)c2)ccc1F,inactive: -2.06%
